From the supplement of paper PMC12217912
Some of the results follow. Sequences were assembled here from the parent chain. Values near 0.05 are background.

B1: TEV protease; numbered along this chain (parent)
chain: MGESLFKGPRDYNPISSSICHLTNESDGHTTSLYGIGFGPFIITNKHLFRRNNGTLVVQSLHGVFKVKDTTTLQQHLVDGRDMIIIRMPKDFPPFPQKLKFREPQREERICLVTTNFQTKSMSSMVSDTSCTFPSGDGIFWKHWIQTKDGQCGSPLVSTRDGFIVGIHSASNFTNTNNYFTSVPKNFMELLTNQEAQQWVSGWRLNADSVLWGGHKVFMVKPEEPFQPVKEATQL

Variants of: B1
Test: raw area under fraction-flipped curve 0-4 h after induction (AUC4h, not background-subtracted), DNA-recorder readout of cleavage of the substrate (dimensionless); higher = more cleavage of the substrate by the protease variant
Conditions: temperature: 34 °C; time window: 0-4 h after rhamnose induction
Experimental: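 In vivo DNA recorder in E. coli TOP10(DE3) ΔrhaA at 34 °C. Each TEVp single-site mutant (parent TEVp 0) is paired with a single-site variant of the 7-mer TEVs (canonical ENLYFQ|S). The substrate sits between flexible linkers in a Bxb1-sfGFP-TEVs-SsrA fusion, so cleavage stabilises Bxb1 and speeds flipping of a recombination array, read by NGS. The value is the raw area under the fraction-flipped curve over 0-4 h after rhamnose induction (AUC4h), with ≥20 reads per time point. It is not background-subtracted; inactive controls average about 0.047.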
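Note: Bxb1 expression induced with 0.2% (w/v) L-rhamnose at OD600 near 0.5, cultures sampled hourly, flipped fraction per protease–substrate barcode pair counted by paired-end Illumina sequencing.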

Variant	area with substrate ENLYFCS	area with substrate ENLYFFS	area with substrate ENLYFIS	area with substrate ENLYFLS	area with substrate ENLYFMS	area with substrate ENLYFNS	area with substrate ENLYFPS	area with substrate ENLYFRS	area with substrate ENLYFSS	area with substrate ENLYFTS	area with substrate ENLYFWS	area with substrate ENLYFHS	area with substrate ENLYFKS	area with substrate ENLYFES	area with substrate ENLYFVS	area with substrate ENLYFYS	area with substrate ENLYFDS	area with substrate ENLYFGS
MGESLFKGPRDYNPISSSICHLTNESDGHTTSLYGIGFGPFIITNKHLFRRNNGTLVVQSLHGVFKVKDTTTLQQHLVDGRDMITIRMPKDFPPFPQKLKFREPQREERICLVTTNFQTKSMSSMVSDTSCTFPSGDGIFWKHWIQTKDGQCGSPLVSTRDGFIVGIHSASNFTNTNNYFTSVPKNFMELLTNQEAQQWVSGWRLNADSVLWGGHKVFMVKPEEPFQPVKEATQL [I85T]	0.0774	0.0589	0.043	0.0617	0.0318	0.057	0.0513	0.0531	0.0465	0.0458	0.054							
MGESLFKGPRDYNPISSSICHLTNESDGHTTSLYGIGFGPFIITNKHLFRRNNGTLVVQSLHGVFKVKDTTTLQQHLVDGRDMIIIRMLKDFPPFPQKLKFREPQREERICLVTTNFQTKSMSSMVSDTSCTFPSGDGIFWKHWIQTKDGQCGSPLVSTRDGFIVGIHSASNFTNTNNYFTSVPKNFMELLTNQEAQQWVSGWRLNADSVLWGGHKVFMVKPEEPFQPVKEATQL [P89L]	0.0279		0.0769		0.0331		0.0487		0.0853		0.057	0.0508	0.0537					
MGESLFKGPRDYNPISSSICHLTNESDGHTTSLYGIGFGPFIITNKHLFRRNNGTLVVQSLHGVFKVKDTTTLQQHLVDGRDMIIIRMPHDFPPFPQKLKFREPQREERICLVTTNFQTKSMSSMVSDTSCTFPSGDGIFWKHWIQTKDGQCGSPLVSTRDGFIVGIHSASNFTNTNNYFTSVPKNFMELLTNQEAQQWVSGWRLNADSVLWGGHKVFMVKPEEPFQPVKEATQL [K90H]	0.0645	0.0658	0.0468	0.0477	0.0658	0.0838	0.051	0.0637		0.0562	0.0648	0.0578	0.0583					
MGESLFKGPRDYNPISSSICHLTNESDGHTTSLYGIGFGPFIITNKHLFRRNNGTLVVQSLHGVFKVKDTTTLQQHLVDGRDMIIIRMPKDFPPHPQKLKFREPQREERICLVTTNFQTKSMSSMVSDTSCTFPSGDGIFWKHWIQTKDGQCGSPLVSTRDGFIVGIHSASNFTNTNNYFTSVPKNFMELLTNQEAQQWVSGWRLNADSVLWGGHKVFMVKPEEPFQPVKEATQL [F95H]	0.0505	0.0661	0.0489		0.0541	0.0599	0.0566			0.0601	0.057	0.0508	0.0507	0.0575	0.0072	0.0521		
MGESLFKGPRDYNPISSSICHLTNESDGHTTSLYGIGFGPFIITNKHLFRRNNGTLVVQSLHGVFKVKDTTTLQQHLVDGRDMIIIRMPKDFPPFPHKLKFREPQREERICLVTTNFQTKSMSSMVSDTSCTFPSGDGIFWKHWIQTKDGQCGSPLVSTRDGFIVGIHSASNFTNTNNYFTSVPKNFMELLTNQEAQQWVSGWRLNADSVLWGGHKVFMVKPEEPFQPVKEATQL [Q97H]	0.0583	0.065	0.0496	0.0523		0.0537	0.0626	0.0599			0.0615	0.058			0.0237		0.0697	
MGESLFKGPRDYNPISSSICHLTNESDGHTTSLYGIGFGPFIITNKHLFRRNNGTLVVQSLHGVFKVKDTTTLQQHLVDGRDMIIIRMPKDFPPFPQKQKFREPQREERICLVTTNFQTKSMSSMVSDTSCTFPSGDGIFWKHWIQTKDGQCGSPLVSTRDGFIVGIHSASNFTNTNNYFTSVPKNFMELLTNQEAQQWVSGWRLNADSVLWGGHKVFMVKPEEPFQPVKEATQL [L99Q]	0.0632		0.0547		0.0706	0.0525	0.0599	0.0516			0.0784	0.0479	0.0798				0.0365	
MGESLFKGPRDYNPISSSICHLTNESDGHTTSLYGIGFGPFIITNKHLFRRNNGTLVVQSLHGVFKVKDTTTLQQHLVDGRDMIIIRMPKDFPPFPQKLKFREPQREERICLSTTNFQTKSMSSMVSDTSCTFPSGDGIFWKHWIQTKDGQCGSPLVSTRDGFIVGIHSASNFTNTNNYFTSVPKNFMELLTNQEAQQWVSGWRLNADSVLWGGHKVFMVKPEEPFQPVKEATQL [V113S]	0.0542	0.0706	0.0397		0.0534	0.0561	0.0429	0.0523	0.0399	0.0477	0.0366	0.03		0.0549	0.0613	0.0415		0.0495
MGESLFKGPRDYNPISSSICHLTNESDGHTTSLYGIGFGPFIITNKHLFRRNNGTLVVQSLHGVFKVKDTTTLQQHLVDGRDMIIIRMPKDFPPFPQKLKFREPQREERICLVTYNFQTKSMSSMVSDTSCTFPSGDGIFWKHWIQTKDGQCGSPLVSTRDGFIVGIHSASNFTNTNNYFTSVPKNFMELLTNQEAQQWVSGWRLNADSVLWGGHKVFMVKPEEPFQPVKEATQL [T115Y]	0.0598		0.0693		0.0707	0.0779	0.0556	0.0658			0.0592	0.0509		0.0641			0.0626	
MGESLFKGPRDYNPISSSICHLTNESDGHTTSLYGIGFGPFIITNKHLFRRNNGTLVVQSLHGVFKVKDTTTLQQHLVDGRDMIIIRMPKDFPPFPQKLKFREPQREERICLVTTYFQTKSMSSMVSDTSCTFPSGDGIFWKHWIQTKDGQCGSPLVSTRDGFIVGIHSASNFTNTNNYFTSVPKNFMELLTNQEAQQWVSGWRLNADSVLWGGHKVFMVKPEEPFQPVKEATQL [N116Y]	0.0644	0.0725	0.0545	0.0653	0.0765	0.0538	0.0582	0.0844		0.0669	0.0638				0.0642	0.0826	0.0592	
